Assay results reported in PMC12136788.
The list shows a part of the results.

T1: UNK ZnF1-3 (human, UniProt Q9C0B0 31-174)
T1 sequence: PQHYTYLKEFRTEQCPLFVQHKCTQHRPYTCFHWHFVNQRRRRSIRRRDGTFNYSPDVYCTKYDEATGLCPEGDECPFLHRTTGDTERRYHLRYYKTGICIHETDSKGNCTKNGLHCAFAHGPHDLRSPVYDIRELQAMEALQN

B1: 44271160_44272037_1950_CDS_ENSG00000124608_ENST00000244571|human|control|control (ssRNA)
RNA: GGGAGUUCUACAGUCCGACGAUCCUGGGUGGUCACAUCCAAGCGCAGCUGCUCAGGAUUGAGAUGGGAGCCCUGCUGCUCUGUGCCAGGGCCCAGGGUCUGCCUCAGUGCCCAGUUCAGCAGGUGGGUGGCCGUAUGCUUCGCCAACAGAGGAUUGAGCAUCA
B2: chr22:41363808:41363809:+_ENSG00000100387_ENST00000216225|hu_hu|FALSE|FALSE (ssRNA)
RNA: GGGAGUUCUACAGUCCGACGAUCGUCCAAUGGACACACCUGUCGUGUUUUGAGCCAGCGAGAGAUGCAGUGGAAGUGAAAAGCAUGGUUACAGACUCCCCAUGCGACAGUACACUCUUCUGAAGUAGCGGACGCCUGGUUAGCCAACAGAGGAUUGAGCAUCA
B3: chr3:119450855:119450856:-_ENSMUSG00000028134_ENSMUST00000029780|mus_hu|mus_mus_mus_hu_False|58_58 (ssRNA)
RNA: GGGAGUUCUACAGUCCGACGAUCUGUGGUGCCACUAAGAGGAGUAUUUGCUGUCUGGACAGCUGUCACAGCUUGAAGAACUACUUGAGCACGUUGGUUUAAUGUAUUAUCUGUCUUUAGUUCUUUGUGAUUCGAGUACUGGAUCAACAGAGGAUUGAGCAUCA
B4: chr4:13698614:13698615:+_ENSMUSG00000006586_ENSMUST00000098257|mus_mus|FALSE|FALSE (ssRNA)
RNA: GGGAGUUCUACAGUCCGACGAUCACUCAGUGCUCUCCAAGUGUUUCUUUUGACAGAUAUCAUUCUCCAGCAAGCGCUGUGCUAAUCUCCUCUGCUGCUCGGACUGGGACCCAGAUAAGUUCACCAGCCCACAGAUCAAUCUUUCAACAGAGGAUUGAGCAUCA
B5: chr19:60835742:60835743:+_ENSMUSG00000072437_ENSMUST00000088237|mus_hu|motif|central (ssRNA)
RNA: GGGAGUUCUACAGUCCGACGAUCUCCAAAAAGGACUUUGUAGGAAAAUUAAAAUACAAAGAAAAAUAAAAGCCACGGGAAAUUUUAAGUCUGUACAGAAAAGAACAGGUUAAGACAAUCUGUACCUCUACAGUUGGAGAAGCCCAACAGAGGAUUGAGCAUCA
B6: chr2:170668292:170668293:+_ENSG00000138385_ENST00000260956|hu_hu|motif|central (ssRNA)
RNA: GGGAGUUCUACAGUCCGACGAUCGUGGACCUAAUUCGGUUUUCCUUUUAAAAGCCCCGCAAACAAAAGUCGUUUAAAACCGGUUUAAAAUGAAUAAAAAAUUGGUUUACUAAACUACUGGUCUCCAGCACCAUUUUCUGUUUUCAACAGAGGAUUGAGCAUCA
B7: chr5:28717518:28717519:+_ENSMUSG00000048271_ENSMUST00000114884|mus_hu|motif|central (ssRNA)
RNA: GGGAGUUCUACAGUCCGACGAUCUGCUGAGGGCGUGGCAGAGCAGCGGCUGCUGCUCAUUUCUAUCACGUGUGACGGCGCGGUGGGUAAUUCACGCAAAUUGCUGUUCCUUGGCGCAGUGGGCUGCAUUUGCUGCAUGGGCCGCAACAGAGGAUUGAGCAUCA
B8: chr14:89307221:89307222:+_ENSG00000165533_ENST00000346301|hu_hu|motif|central (ssRNA)
RNA: GGGAGUUCUACAGUCCGACGAUCUCCUGUCUGAUUAGUUCCAGGGAGUUUCAAAGACGUUCCAGGGCGUGGAACUUGAGCGGUAGCAUUUUCAUCCAGCAUCAUUUCUGCAAUUCCUUCCUGAUCUACAUCAAUUUCAUCUAUCAACAGAGGAUUGAGCAUCA
B9: 108382292_108397401_1306_3pUTR_ENSG00000106692_ENST00000223528|human|control|control (ssRNA)
RNA: GGGAGUUCUACAGUCCGACGAUCUUCACAGGGUACAUGGACCUUCAUGUCUACAAACUCAGUCCAGCACAGUGUAAACUUCGGAAACAGGUAUUUGAAUUUUUUUCCUGUUUUGGCCUGAGUGCCUCCAUUCCACAUGUGAUCCAACAGAGGAUUGAGCAUCA
B10: chr8:29927545:29927546:-_ENSG00000133872_ENST00000521265|hu_hu|FALSE|FALSE (ssRNA)
RNA: GGGAGUUCUACAGUCCGACGAUCAGGACUCAUAGCCUUCACAGCUCACCACAGUUUUUCCAAAUUUGUAUGCAAUAUCUAAGUCCGUCUUACAUUCCCACUGUACAUCAUACCCAUCCCAGCCUUUGUUCUGACACUGUAUGACAACAGAGGAUUGAGCAUCA
B11: chr14:94545736:94545737:-_ENSG00000089737_ENST00000330836|hu_hu|motif|central (ssRNA)
RNA: GGGAGUUCUACAGUCCGACGAUCCUCCAGCUCAGGAUCUUUCACUUCAAAUUCUUUCUGGGUACUGGUUCCUUCAGUUGCGGCAUUUUUACUUUUCUUCAACUUGAUCUUUUUCUUUGGUGAGCUAGACUUUCCCUCCUCCUCCAACAGAGGAUUGAGCAUCA
B12: chr4:25749455:25749456:-_ENSG00000091490_ENST00000264868|hu_hu|hu_hu_hu_mus_False|48_48 (ssRNA)
RNA: GGGAGUUCUACAGUCCGACGAUCGCACUAUGACCUCUAGAAAAAUCCACAGGGGGAAAAAAUGUAAACCAAUGUACAAUGUUAUCGCCCUCCCUGCGUGUGGAGUGUUUGUCUCAAGGCUCCUUCUAGCUGCUGGAUUUGGGACAACAGAGGAUUGAGCAUCA
B13: chr6:38489255:38489256:+_ENSMUSG00000019689_ENSMUST00000019833|mus_mus|FALSE|FALSE (ssRNA)
RNA: GGGAGUUCUACAGUCCGACGAUCCACUGAACGCUCACCCUUGCCAUGAAAUUCCUGAUGAAGGGCUACAUGUUGCCGGAUGCUACUCAAAAGGCAGAGAUAGGUGGCAGCUUGGAAGUGAAGUUCGUGUUGGGCUCUACACAACAACAGAGGAUUGAGCAUCA
B14: chr14:63761926:63761927:+_ENSMUSG00000021939_ENSMUST00000006235|mus_mus|motif|central (ssRNA)
RNA: GGGAGUUCUACAGUCCGACGAUCCUGCCAAUGUCAAGCAGAGGGAGAAUUGGUUUAUUGGCACAGACAUUCCUUGUUAAACGGCAGGGUUAAGUGGUAACUACAACAAAAAGCAAGUUUUUUUUUCCAGACUAGUUUCAUUGUCAACAGAGGAUUGAGCAUCA
B15: chr6:31368937:31368938:+_ENSMUSG00000025609_ENSMUST00000026699|mus_mus|FALSE|FALSE (ssRNA)
RNA: GGGAGUUCUACAGUCCGACGAUCGGGAGGAUAGUUGCUCUCUGAAGACCAUCUGGAAGACUGAUCAUUUGGUUUAUCCACUAAAAUGUUCUCGGGAAGGUAGGUGGAGGAGAAGGAGCUCCACUUAUGCAGCGCGUAGGGCAGCAACAGAGGAUUGAGCAUCA
B16: 20693388_20693508_2158_3pUTR_ENSMUSG00000043004_ENSMUST00000160013|mouse|control|control (ssRNA)
RNA: GGGAGUUCUACAGUCCGACGAUCCACCAACUUUUAAACCAUGAGGAAGAGAAUGGUAAGAGGAGAAAAGAAAUUUUACUUGGAUUUAGUGGUCUUUUAGGAUCUGAAAACAAAAAGAAUCGUAAGAGGCUCUCUUUGACUGGGCAACAGAGGAUUGAGCAUCA
B17: chr7:125262511:125262512:-_ENSMUSG00000030654_ENSMUST00000032888|mus_mus|FALSE|FALSE (ssRNA)
RNA: GGGAGUUCUACAGUCCGACGAUCAAAGAAGAAAUGAUUAAAACUGCCAAAGUAGUUAACUCGUAGAACAUGUAUUAGUCACACACACACAAAUUCCAGGUAGGAAGGCAGGCUUAUUUACAAGAAAACAUGUAAAAUCAAAGUCAACAGAGGAUUGAGCAUCA
B18: 84846767_84848187_400_CDS_ENSMUSG00000024644_ENSMUST00000025546|mouse|control|control (ssRNA)
RNA: GGGAGUUCUACAGUCCGACGAUCAUCGUCCGUGGAGCCUCUCCCAUACAGCUUGCCUUCCCGCUCCACCAAGGUGAAGGGCUCGCUGUCCCACCCGUCCUCCAGGGCCGCAGGCUGCACGUCCAGGUGCCCGUAAAUGCACACCAACAGAGGAUUGAGCAUCA
B19: 88149557_88149677_325_CDS_ENSMUSG00000015053_ENSMUST00000015197|mouse|control|control (ssRNA)
RNA: GGGAGUUCUACAGUCCGACGAUCAGGCAGCAGCUGUGCUGGCUCCAUGUAGUUAUGCGCCAGGCCCGGAUGGUGCGAGUCGGGGUGCUGCGCAUUCAAUACGGCGGGGUGCGCCAUCCAGCGAGGCUGCUCAGGCGCCACCUCCAACAGAGGAUUGAGCAUCA
B20: chr16:94651144:94651145:+_ENSMUSG00000040785_ENSMUST00000117648|mus_hu|FALSE|FALSE (ssRNA)
RNA: GGGAGUUCUACAGUCCGACGAUCAUUUUCUUGAAUCAAGUGGCGAAUAACAUAGUCCACUGCUUCAUUUAGAAAAUUUCUGCUAGAAAAACAGGUUGUAUAGUCUUCUGUGCUCAAAACUUUCCAAGAAAGCAAUUCUUUGAGCAACAGAGGAUUGAGCAUCA
B21: chr5:136386016:136386017:-_ENSMUSG00000051391_ENSMUST00000055808|mus_mus|FALSE|FALSE (ssRNA)
RNA: GGGAGUUCUACAGUCCGACGAUCGGGGGUAUUUAACGGUUUCUGUUUUUGUGAUGGGCUGACCUUAAGGGUAAAGAAGAACUAAAAAAAAAAGUAUCCCCCGCAGCCCCCUCCCAAACACCCAUCAACCAAAACGGAACAGGGCAACAGAGGAUUGAGCAUCA
B22: chr14:35505469:35505470:+_ENSMUSG00000041408_ENSMUST00000048263|mus_hu|FALSE|FALSE (ssRNA)
RNA: GGGAGUUCUACAGUCCGACGAUCCUGUAUGGUAACAUUACAAACUGACAAGCAAGAUGGAUGUAAAACAGUGUAAUCUCUAGUCCGUCCAACUGUCCCUCUAAAACUGGUCCCACAACUUACACCCCCUUUCUUUGCCUGAUUCAACAGAGGAUUGAGCAUCA

What follows are binders tested against T1, UNK ZnF1-3 (assay: nsRBNS (natural sequence RNA bind-n-seq); RBNS binding buffer (assumed for nsRBNS): 25 mM Tris pH 7.5, 150 mM KCl, 3 mM MgCl2, 0.01% Triton X-100, 500 ug/ml BSA, 20 U/ml SUPERase-In, 4 C; UNK is unkempt and MSI1 is Musashi-1; names of the RNAs are library labels; protein concentration not given here; high values mean tight binding).

Binder | binding signal [enrichment R]
B1 | 1.39
B2 | 0.903
B3 | 0.823
B4 | 0.734
B5 | 2.47
B6 | 1.89
B7 | 0.545
B8 | 0.853
B9 | 0.589
B10 | 0.898
B11 | 0.426
B12 | 1.07
B13 | 1.12
B14 | 1.41
B15 | 2.07
B16 | 1.77
B17 | 1.09
B18 | 0.765
B19 | 0.544
B20 | 0.34
B21 | 1.36
B22 | 1.08
